Some of the results follow. The full chains were built here from the parent and the listed change. Values near 0.05 are background.
B1: TEV protease; numbered along this chain (parent)
chain: MGESLFKGPRDYNPISSSICHLTNESDGHTTSLYGIGFGPFIITNKHLFRRNNGTLVVQSLHGVFKVKDTTTLQQHLVDGRDMIIIRMPKDFPPFPQKLKFREPQREERICLVTTNFQTKSMSSMVSDTSCTFPSGDGIFWKHWIQTKDGQCGSPLVSTRDGFIVGIHSASNFTNTNNYFTSVPKNFMELLTNQEAQQWVSGWRLNADSVLWGGHKVFMVKPEEPFQPVKEATQL

Variants of: B1
Assay: raw area under fraction-flipped curve 0-4 h after induction (AUC4h, not background-subtracted), DNA-recorder readout of cleavage of the substrate (dimensionless); higher = more cleavage of the substrate by the protease variant
Settings: temperature: 34 °C; time window: 0-4 h after rhamnose induction
Description: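 In vivo DNA recorder in E. coli TOP10(DE3) ΔrhaA at 34 °C. Each TEVp single-site mutant (parent TEVp 0) is paired with a single-site variant of the 7-mer TEVs (canonical ENLYFQ|S). The substrate sits between flexible linkers in a Bxb1-sfGFP-TEVs-SsrA fusion, so cleavage stabilises Bxb1 and speeds flipping of a recombination array, read by NGS. The value is the raw area under the fraction-flipped curve over 0-4 h after rhamnose induction (AUC4h), with ≥20 reads per time point. It is not background-subtracted; inactive controls average about 0.047.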
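Note: Bxb1 expression induced with 0.2% (w/v) L-rhamnose at OD600 near 0.5, cultures sampled hourly, flipped fraction per protease–substrate barcode pair counted by paired-end Illumina sequencing.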

| Variant | area with substrate EALYFQS | area with substrate EHLYFQS | area with substrate EILYFQS | area with substrate EKLYFQS | area with substrate ELLYFQS | area with substrate EMLYFQS | area with substrate EPLYFQS | area with substrate EELYFQS | area with substrate EFLYFQS | area with substrate EGLYFQS | area with substrate EQLYFQS | area with substrate ESLYFQS | area with substrate ETLYFQS | area with substrate EVLYFQS | area with substrate EWLYFQS | area with substrate EYLYFQS | area with substrate EDLYFQS | area with substrate ECLYFQS | area with substrate ERLYFQS |
| --- | --- | --- | --- | --- | --- | --- | --- | --- | --- | --- | --- | --- | --- | --- | --- | --- | --- | --- | --- |
| MGESLFKGPRDYNPISSSICHLTNESDGHTTSLYGIGFGPFIITNKHLFRRNNGTLVVQSLHGVFKVKDTTTLQQHLVDGRDMIIIRMPKDFPPKPQKLKFREPQREERICLVTTNFQTKSMSSMVSDTSCTFPSGDGIFWKHWIQTKDGQCGSPLVSTRDGFIVGIHSASNFTNTNNYFTSVPKNFMELLTNQEAQQWVSGWRLNADSVLWGGHKVFMVKPEEPFQPVKEATQL [F95K] | 0.0553 | 0.0752 | 0.0414 | 0.0778 | 0.0794 | 0.0775 | 0.0831 |  |  |  |  |  |  |  |  |  |  |  |  |
| MGESLFKGPRDYNPISSSICHLTNESDGHTTSLYGIGFGPFIITNKHLFRRNNGTLVVQSLHGVFKVKDTTTLQQHLVDGRDMIIIRMPKDFPPFIQKLKFREPQREERICLVTTNFQTKSMSSMVSDTSCTFPSGDGIFWKHWIQTKDGQCGSPLVSTRDGFIVGIHSASNFTNTNNYFTSVPKNFMELLTNQEAQQWVSGWRLNADSVLWGGHKVFMVKPEEPFQPVKEATQL [P96I] | 0.105 | 0.109 | 0.0789 | 0.112 | 0.0422 | 0.113 |  | 0.0702 | 0.121 | 0.0768 | 0.0938 | 0.0892 | 0.12 | 0.1 | 0.0844 | 0.0944 |  |  |  |
| MGESLFKGPRDYNPISSSICHLTNESDGHTTSLYGIGFGPFIITNKHLFRRNNGTLVVQSLHGVFKVKDTTTLQQHLVDGRDMIIIRMPKDFPPFPQKLCFREPQREERICLVTTNFQTKSMSSMVSDTSCTFPSGDGIFWKHWIQTKDGQCGSPLVSTRDGFIVGIHSASNFTNTNNYFTSVPKNFMELLTNQEAQQWVSGWRLNADSVLWGGHKVFMVKPEEPFQPVKEATQL [K100C] | 0.115 | 0.127 | 0.119 | 0.112 | 0.0977 | 0.132 | 0.0882 | 0.135 | 0.136 | 0.0945 | 0.164 | 0.0893 |  | 0.0798 | 0.0825 |  | 0.108 |  |  |
| MGESLFKGPRDYNPISSSICHLTNESDGHTTSLYGIGFGPFIITNKHLFRRNNGTLVVQSLHGVFKVKDTTTLQQHLVDGRDMIIIRMPKDFPPFPQKLKLREPQREERICLVTTNFQTKSMSSMVSDTSCTFPSGDGIFWKHWIQTKDGQCGSPLVSTRDGFIVGIHSASNFTNTNNYFTSVPKNFMELLTNQEAQQWVSGWRLNADSVLWGGHKVFMVKPEEPFQPVKEATQL [F101L] | 0.0731 |  | 0.0567 | 0.0972 |  | 0.0825 |  |  | 0.0733 | 0.0905 | 0.105 |  | 0.113 | 0.0984 | 0.0694 |  |  | 0.0773 |  |
| MGESLFKGPRDYNPISSSICHLTNESDGHTTSLYGIGFGPFIITNKHLFRRNNGTLVVQSLHGVFKVKDTTTLQQHLVDGRDMIIIRMPKDFPPFPQKLKRREPQREERICLVTTNFQTKSMSSMVSDTSCTFPSGDGIFWKHWIQTKDGQCGSPLVSTRDGFIVGIHSASNFTNTNNYFTSVPKNFMELLTNQEAQQWVSGWRLNADSVLWGGHKVFMVKPEEPFQPVKEATQL [F101R] | 0.0323 |  | 0.0423 | 0.0499 |  | 0.0503 | 0.0327 |  |  |  |  | 0.0467 | 0.049 | 0.0489 |  | 0.0473 |  |  | 0.0355 |
| MGESLFKGPRDYNPISSSICHLTNESDGHTTSLYGIGFGPFIITNKHLFRRNNGTLVVQSLHGVFKVKDTTTLQQHLVDGRDMIIIRMPKDFPPFPQKLKFREPPREERICLVTTNFQTKSMSSMVSDTSCTFPSGDGIFWKHWIQTKDGQCGSPLVSTRDGFIVGIHSASNFTNTNNYFTSVPKNFMELLTNQEAQQWVSGWRLNADSVLWGGHKVFMVKPEEPFQPVKEATQL [Q105P] | 0.0691 |  | 0.0335 | 0.0493 |  | 0.0508 |  |  | 0.0543 | 0.0597 | 0.0554 | 0.0536 |  | 0.0426 |  |  |  | 0.0546 | 0.06 |
| MGESLFKGPRDYNPISSSICHLTNESDGHTTSLYGIGFGPFIITNKHLFRRNNGTLVVQSLHGVFKVKDTTTLQQHLVDGRDMIIIRMPKDFPPFPQKLKFREPQMEERICLVTTNFQTKSMSSMVSDTSCTFPSGDGIFWKHWIQTKDGQCGSPLVSTRDGFIVGIHSASNFTNTNNYFTSVPKNFMELLTNQEAQQWVSGWRLNADSVLWGGHKVFMVKPEEPFQPVKEATQL [R106M] | 0.125 | 0.11 | 0.121 |  | 0.194 | 0.101 | 0.171 |  |  | 0.113 | 0.107 | 0.105 |  | 0.0421 | 0.0866 | 0.105 |  |  |  |
| MGESLFKGPRDYNPISSSICHLTNESDGHTTSLYGIGFGPFIITNKHLFRRNNGTLVVQSLHGVFKVKDTTTLQQHLVDGRDMIIIRMPKDFPPFPQKLKFREPQVEERICLVTTNFQTKSMSSMVSDTSCTFPSGDGIFWKHWIQTKDGQCGSPLVSTRDGFIVGIHSASNFTNTNNYFTSVPKNFMELLTNQEAQQWVSGWRLNADSVLWGGHKVFMVKPEEPFQPVKEATQL [R106V] | 0.131 |  | 0.103 |  |  |  |  | 0.14 |  |  | 0.085 | 0.102 | 0.124 |  |  |  |  |  | 0.106 |
| MGESLFKGPRDYNPISSSICHLTNESDGHTTSLYGIGFGPFIITNKHLFRRNNGTLVVQSLHGVFKVKDTTTLQQHLVDGRDMIIIRMPKDFPPFPQKLKFREPQRIERICLVTTNFQTKSMSSMVSDTSCTFPSGDGIFWKHWIQTKDGQCGSPLVSTRDGFIVGIHSASNFTNTNNYFTSVPKNFMELLTNQEAQQWVSGWRLNADSVLWGGHKVFMVKPEEPFQPVKEATQL [E107I] | 0.0049 | 0.083 | 0.0882 | 0.0996 |  | 0.0789 |  | 0.125 |  |  | 0.103 | 0.0888 |  | 0.0948 |  |  | 0.0914 |  |  |
